# Reference: PMC12136788
# The list shows a part of the results.
# T1: UNK ZnF1-6 (called full-length) (human, UniProt Q9C0B0 30-357)
# T1 sequence: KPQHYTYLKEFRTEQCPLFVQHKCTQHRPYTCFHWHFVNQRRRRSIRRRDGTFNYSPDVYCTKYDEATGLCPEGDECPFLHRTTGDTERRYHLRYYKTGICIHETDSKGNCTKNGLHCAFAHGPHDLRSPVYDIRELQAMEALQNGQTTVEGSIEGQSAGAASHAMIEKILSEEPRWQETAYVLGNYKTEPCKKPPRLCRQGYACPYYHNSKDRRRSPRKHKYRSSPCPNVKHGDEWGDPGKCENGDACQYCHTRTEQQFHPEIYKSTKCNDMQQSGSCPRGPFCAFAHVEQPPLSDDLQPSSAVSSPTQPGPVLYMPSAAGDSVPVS
# B1: chr2:42328916:42329027:+|CDS|ENSG00000143924|unk|total|mutant (ssRNA)
# RNA: GGGAGUUCUACAGUCCGACGAUCAGAAGGAUCUGAUGGGACAGAUAUCAAUGCACUGGUGCGAUCCCACAACCGAAAGGUGACCGCUGUUGCCGAUGACUUUUGUAAAGUCCAUCUGUUUCAGUAUCCCUGCUCCAAAGCAAACAACAGAGGAUUGAGCAUCA
# B2: chr2:45005181:45006169:-|three_prime_utr|ENSG00000170577|control|control|control (ssRNA)
# RNA: GGGAGUUCUACAGUCCGACGAUCCAGGGGCGCCCCGCCCCUGCGGCCCCACCAGGUACUGAAAGACCCGCAGGCUGAGCGGGUAGAACAGCCGGGUAGGGCAGAUAGCUGUCUAUGUUGGUUCUUGUUUGGGAUUUAUUUUCACAACAGAGGAUUGAGCAUCA
# B3: chr6:132743869:132744491:-|three_prime_utr|ENSG00000112303|control|control|control (ssRNA)
# RNA: GGGAGUUCUACAGUCCGACGAUCAUGUGGGACCAGCAAUUCAGCAAUAACUUACCUGCUAAUAUUCAUAUUAUUAAUGAUCAUAGCUUUGCAAAAUAUUGUAAUGUUAUAGGGCGUCUCUUUAUCACUCAGCUUCUGCAUCAUCAACAGAGGAUUGAGCAUCA
# B4: chr1:46532996:46533527:-|CDS|ENSG00000282881|control|control|control (ssRNA)
# RNA: GGGAGUUCUACAGUCCGACGAUCGUCGUGGGGCUGGCGCUGCUGGUGCUGGCGCUCGGCUUCUUCGCGGCCUGCUGCGUGUGUAGCCGCCGGGGCCUCGCGCCCCGUGGGCGCUCGGCGGCCGCGGCGGGCCCGGGCCAGGGUCAACAGAGGAUUGAGCAUCA
# B5: chr1:153662446:153662560:-|CDS|ENSG00000143621|unk|total|mutant (ssRNA)
# RNA: GGGAGUUCUACAGUCCGACGAUCAAUCACCUUUUUCUCUUUCCCCGAUCUUGCUUCUGAAAUAUCUACCUGGGAUGGAGUGACCGUAACACCUUCAGAAAAGGCUUAUGAGAAGCCACCAGAGAAGAAGGAAGGAGAGGAAGACAACAGAGGAUUGAGCAUCA
# B6: ENSG00000107863:be:win_4301|CDS|ENSG00000107863|bound_else_gene|NA|bound_elsewhere_windowed (ssRNA)
# RNA: GGGAGUUCUACAGUCCGACGAUCAAGAUGAACUGGACAAUGUAUUUUUUAAGAAAGAAAAUGUGGAACAGUGUCACAAUGAUACUAAAGAGGAGUCCAAAAAAGAAAGUGAGACACUGGGCAGAAAACAGAAGAUCAUCAUUGCAACAGAGGAUUGAGCAUCA
# B7: chr10:121957106:121957207:-|3pUTR|ENSG00000107672|msi1|FALSE|bound_elsewhere (ssRNA)
# RNA: GGGAGUUCUACAGUCCGACGAUCUGUAUCGUACAUAUUGUAUGAUUCAACAUUUUUAAAGGCAGAUUGUUUUUAGUAAAAUGUAGCUUUUGAUAGUUAAUAAAUUUGUCAUGGUUGUCUUUGAUUAAAGGAAACUCACCGCCACAACAGAGGAUUGAGCAUCA
# B8: chr3:36528868:36528981:+|CDS|ENSG00000144681|unk|total|mutant (ssRNA)
# RNA: GGGAGUUCUACAGUCCGACGAUCAGAAUUGGCUUCUUUCCAGCCAACUUUGUUCAGAGACUACAACAAAAUGAGAAGAUUUUCCGAUGUGUCCGAACCUUCAUUGGGUGUAAGGAACAGGGGCAGAUAACACUGAAAGAGAAUCAACAGAGGAUUGAGCAUCA
# B9: chr15:66548596:66548706:+|3pUTR|ENSG00000174442|unk|FALSE|unique (ssRNA)
# RNA: GGGAGUUCUACAGUCCGACGAUCUAGCAAGGGCUCUGAAAUGACAAAGAGAACGAGCACCACAAAUGAGAACAGGAUCAUUUUAGUAAAUACAGCUUUAUCCCAAAAGCUUUAACUGUAUUGGGAAAACUUAAAAAAUAGCAUCAACAGAGGAUUGAGCAUCA
# B10: chr5:83943476:83943577:-|CDS|ENSG00000164176|msi1|FALSE|unique (ssRNA)
# RNA: GGGAGUUCUACAGUCCGACGAUCAUAAAAAUAAUUUCAAAGAAAGAAGGCUGUGUGACUGACAUUUUUCUGCUCUUCUUUAUUAGGUUUUCCAGGGAAAUUUUGACAAUGACACUCACAGAAAAAAUGUCAUCGACCCUCCCACAACAGAGGAUUGAGCAUCA
# B11: chr1:16057768:16058436:-|three_prime_utr|ENSG00000185519|control|control|control (ssRNA)
# RNA: GGGAGUUCUACAGUCCGACGAUCGCAGCCCAGGCAUAUCUGGACCCCGGGGUCCAGGGCAGGGCAUCCCUUGACCCCUCGGGUAGGCACAGGGUAGGUGCGGCAGGGAUGGGGCCAGUGCUCAUGGUGGCCUCUCUGUGCCUCCAACAGAGGAUUGAGCAUCA
# B12: chr2:128192036:128192329:+|3pUTR|ENSG00000136731|msi1|total|mutant (ssRNA)
# RNA: GGGAGUUCUACAGUCCGACGAUCAUGUCCUGGUGUCACUCAUUGCCUCUUAUCUGUCGCCAUUCUAAUAUAAGUCAGCUUAACCGUUGACUCUGAAUAAUGCAAAACCCAGCUUGCUUCCAGAAUGGCCCCGGACCCUCCUCCCAACAGAGGAUUGAGCAUCA
# B13: chr7:20413385:20413486:+|3pUTR|ENSG00000105855|msi1|FALSE|unique (ssRNA)
# RNA: GGGAGUUCUACAGUCCGACGAUCACUGAAGAUAUCUUUAUGCAAGACAAGAGUCAGCCAUCAGACACUGAAAUAUAUUAUGAUAGAUUAUGAAGAAUUUUCUCUGUAGAAUUAUAUUCUUCCUGGAACCUGGUAGAGUAGAUUCAACAGAGGAUUGAGCAUCA
# B14: chr1:31434308:31434366:+|3pUTR|ENSG00000168528|msi1_unk|total|mutant (ssRNA)
# RNA: GGGAGUUCUACAGUCCGACGAUCGCCAGGCUGAGCCCCCACCCCUGCCCCAGCUCCAGGACCUGCCCCUGAGCCGGGCCUUCCCGUCGCCGUGCCUUCAGGGUCCGAGGAGCAUCAGGCUCCUGCAGAGCCCCAUCCCCCCGCCAACAGAGGAUUGAGCAUCA
# B15: chr1:21217244:21217432:-|3pUTR|ENSG00000117298|msi1|FALSE|unique (ssRNA)
# RNA: GGGAGUUCUACAGUCCGACGAUCCCGCUCCAGAGCUUUAAGGAAAAUGAAGUGAGACCCCUCCCCUUAGGCCUGGGGAGCCAUAGGGCUGGCUUCUCUGUGGGUGCGUGGACGUGGGGUUGGGAGCUGGGAAUCUAUUUUUUGCAACAGAGGAUUGAGCAUCA
# B16: chr16:67657985:67658362:-|CDS|ENSG00000102977|control|control|control (ssRNA)
# RNA: GGGAGUUCUACAGUCCGACGAUCUCCACACCAGGCUCUUGUGACCAGGCCCCAGAAACCUAGCCUGGAGUUCAAGGAGUUUGUAGGGUUGCCCUGCAAGAAUCGGCCGCCUUUUCCCAGGACCGGAGCUACCAGGGGAGCCCACAACAGAGGAUUGAGCAUCA
# B17: chr17:29262523:29262623:-|3pUTR|ENSG00000108256|msi1_unk|total|mutant (ssRNA)
# RNA: GGGAGUUCUACAGUCCGACGAUCACUUUGACUGAUAUUGUAAUUUUCAAAUGUAUAAUAUGUUUACAGAUGUGCCCUGCAUUCCGUCUGCCUUGUUCCUAUUUUGAUUUUUGUUGAGUCUCCUGCCUGCUUGCCAAAAGCCCGCAACAGAGGAUUGAGCAUCA
# B18: chr1:10947665:10948844:-|CDS|ENSG00000175262|control|control|control (ssRNA)
# RNA: GGGAGUUCUACAGUCCGACGAUCCCCCAGGGAGGGGGCCAGGGGGCACAUGGACCUUUCAUCCUCAGAACCAAGCCAGGACAUAGAGGGGCCGGGACUCUCCAUCCUGCCAGCGAGGGAUGCCACAUUCUCCACCCCAAGUGUCAACAGAGGAUUGAGCAUCA
# B19: chr11:13729208:13729309:+|3pUTR|ENSG00000197601|unk|total|mutant (ssRNA)
# RNA: GGGAGUUCUACAGUCCGACGAUCAAAGUUGGCCGAUAUUUGAUUCUUCAUUUUUUGUUUUUUUCAUCCGUUGAAGUGGGUUUCCGUUUUGUUUAAAAUUAUAACCAGCGUAUUUUCACAUCAUUCUGUAAGUUAAAUGAUAUCCAACAGAGGAUUGAGCAUCA
# B20: chr1:109062613:109062715:-|3pUTR|ENSG00000197780|unk|total|mutant (ssRNA)
# RNA: GGGAGUUCUACAGUCCGACGAUCAGUUCUGAAUACACAGGUUUUGUGUGUAUUUACUCUAUGUAUUAAAUUAUUAUUGCCCUCCGUUUAAAGUAAGGAUUACAAUUGGAUUUAAGCCGAUCACUGAAUGUUAUUGUUUAUGAACAACAGAGGAUUGAGCAUCA
# B21: chr1:62864655:62864756:+|3pUTR|ENSG00000125703|unk|total|mutant (ssRNA)
# RNA: GGGAGUUCUACAGUCCGACGAUCUUUGUUAACUGUGAUAUGCAUACACUUAUAUAAGCAGAAUUAUGAGUUAAAGUAAUACUCCGCAAUAUGAUUUUAUAAUGGCUCCUCAUUAUGCUUGCUGUUGAACCUUUUAUGAGGAGUCAACAGAGGAUUGAGCAUCA
# B22: chr3:98585547:98585662:-|CDS|ENSG00000080819|unk|FALSE|unique (ssRNA)
# RNA: GGGAGUUCUACAGUCCGACGAUCUCCAUUUGAUCCCUGGUUUGGCGCCGCUGUGUUUUCCAGGUGUGAUGAUUACUUCUUUAUAGCCCAUCGUGGAGAACGGCGGGGCAUUGGUGGUAUCUUUUUUGAUGAUCUUGACUCUCCCAACAGAGGAUUGAGCAUCA
# Biological target: T1, UNK ZnF1-6 (called full-length)
# Test: nsRBNS (natural sequence RNA bind-n-seq); RBNS binding buffer (assumed for nsRBNS): 25 mM Tris pH 7.5, 150 mM KCl, 3 mM MgCl2, 0.01% Triton X-100, 500 ug/ml BSA, 20 U/ml SUPERase-In, 4 C; UNK is unkempt and MSI1 is Musashi-1; names of the RNAs are library labels; protein concentration not given here; high values mean tight binding
row,Binder,binding signal [enrichment R]
1,B1,0.381
2,B2,0.596
3,B3,0.744
4,B4,4.09
5,B5,0.586
6,B6,0.566
7,B7,13.5
8,B8,0.401
9,B9,7.95
10,B10,0.757
11,B11,0.721
12,B12,0.55
13,B13,0.976
14,B14,1.36
15,B15,0.922
16,B16,0.613
17,B17,0.542
18,B18,0.995
19,B19,0.478
20,B20,0.999
21,B21,1.06
22,B22,0.57
